The full ranking holds about 33,000 sequences; the median of “E-score (-0.5 to 0.5)” is about -0.016, and the highest 2% start at about 0.31. The list shows a part of the results.
target: Cst6 (UniProt P40535); assay: PBM E-score (8-mer binding enrichment) (E-score (-0.5 to 0.5)); higher = stronger / more preferred TF binding; most listed sequences are background and not binding sites; conditions: protein concentration: 200 nM; construct: GST-DNA-binding domain
Outline: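 Universal all-10-mer Agilent arrays, double-stranded by primer extension on fresh or once-stripped slides, were probed with about 100-200 nM GST-tagged yeast transcription factors made by PURExpress. Fluorescent anti-GST detected bound protein, and masliner normalised the scans. E-scores from the Universal PBM Analysis Suite were given to each ungapped eight-base word pooled with its reverse complement.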

Sequence | PBM E-score
CATACTGA | 0.104
GACATACA | 0.292
ACTAACTG | 0.0743
ACTTATCC | 0.0806
AGTTGAGG | -0.14
GCCTGGAC | -0.287
AAGGTTTC | 0.0192
ACCTGCTA | -0.0708
GAGCTTGA | -0.199
CGGAACCC | -0.0911
AGAGAAGG | -0.21
ATTGAATC | -0.013
ATTTCACG | -0.00077
AGACTAAG | -0.0239
ATGGGCGA | -0.215
ACTATGAA | 0.107
CGCAGCTC | -0.0835
GTCCGCAA | 0.017
ATGGCAGG | -0.213
GGAGTCAC | -0.112
GCCTTTCA | 0.0677
AGACAAGG | -0.181
CGGCAGCA | -0.176
TCGTGGCA | 0.062
CGACTTCC | -0.0303

Sequence | PBM E-score
GCGCTTAA | -0.00912
GCGTCTAA | -0.0107
AAATACTC | 0.109
AGGTCGCG | -0.123
ACCTACCA | -0.162
CGAGAGGC | -0.226
CGCTAGAA | -0.194
ATGGCGGG | -0.189
ATGCGCTC | -0.0659
ACACCTTA | 0.12
TGATTCCA | 0.0648
ACATAAGA | 0.263
ATTGTCGA | 0.026
AATGCAGG | 0.0163
CACATGTC | -0.0785
ATCACGAC | 0.106
CTGATCAG | -0.0835
AACAATAG | -0.0656
CGTATCAA | 0.0732
GCACTTGA | 0.0821
AGATTCTC | 0.0378
CAATTCCG | -0.0561
GACAGACC | -0.0957
AACAGACA | 0.0199
AGATGCAA | -0.0674

Sequence | PBM E-score
AACAGCAG | -0.06
ATTAAAAC | 0.213
GCGCCAAC | 0.0978
CGCGGGAG | -0.295
TCTTCTCA | -0.0405
ACCAGAGT | -0.209
AGAGTCCT | -0.343
GATCCTGC | -0.187
CCCGAAGC | -0.201
TACTGCCA | -0.125
CACTTATG | 0.202
GACCCAGA | -0.059
AGTGTACC | -0.245
CCGATGAA | 0.0447
TAGCCCGA | -0.177
GCCGGCGC | 0.0813
CTGGTTCC | -0.0459
CTTTTTTC | 0.0653
AGTGCGCA | -0.0548
CAGGAGCC | -0.208
ACTACGAT | 0.16
ATGCGCCG | 0.108
AGGTTGGC | -0.197
GTGGCACA | -0.0556
AGGAATCG | -0.0847

Sequence | PBM E-score
CCGAGCGG | -0.178
AGCCTCAG | -0.144
GTCATTTA | 0.368
CATGGTGC | -0.0706
ACTTAGGG | -0.111
CGGTTTGC | -0.148
AAAGATTG | -0.0706
CTGAATCC | 0.0148
GGGCGGCA | -0.0996
CGTGGTGC | -0.177
ATTGGTGA | 0.17
GGATGAGA | -0.14
GAGTTCAA | 0.00704
CCACATGC | -0.0181
ATTACACA | 0.318
AGGCGATC | 0.107
AAGATCCC | -0.186
ACCGCGAT | 0.0943
AAGACTGC | -0.128
ACACAGCA | 0.082
TAAATAGA | 0.115
AGCGACTG | -0.0304
CAGGAGCA | -0.099
GCGGCCGA | 0.0546
CATCGTCC | 0.14

Sequence | PBM E-score
ATCACACG | 0.21
ATTCTGAA | 0.0278
CGGTTTGA | 0.0706
CACCGCGC | 0.122
AAGTTTAG | 0.0595
AGGGTTTG | -0.0896
GAGCAGAA | -0.0753
CGCGCCTA | 0.202
ACTTGGAT | -0.00239
GGATAGGA | -0.235
TGAGTAAA | 0.0371
ACAAGGCG | 0.223
TCGCGCAA | 0.15
TTAAATAA | 0.18
CGTGGAGC | -0.156
CAGGAATG | 0.0203
ATCCGTAA | 0.0347
CAACACTA | 0.104
AACACATT | 0.0628
AGTTGTCG | 0.0536
GAAATGGA | 0.0199
ACTATGCT | 0.00498
AACTCGGG | -0.181
AGATGTCG | -0.143
ACCCGCGA | 0.0243

Sequence | PBM E-score
CATGGTCG | -0.104
GGCAACCC | -0.283
AGGCGGCA | 0.119
CCTAAGAC | -0.191
ATAACCGG | -0.174
AGACTATG | -0.102
ATGAGTTC | -0.0692
GTATTATA | 0.243
AATATAGT | 0.256
ATATGAAA | 0.182
ATAATTGG | -0.0395
TATCAGAA | 0.146
CTGCAGTC | -0.237
TCCGACCA | -0.191
AAATTACC | 0.199
AGAGTAGC | -0.0589
GAGAAAAC | 0.0868
AAAAAAAT | 0.244
TGGTAACA | 0.125
GAAAACGA | 0.0922
CTCAGAGC | -0.115
CGAGCGGA | -0.0645
CAGTAATA | 0.277
CAATGCAC | 0.0118
GGGACTAC | -0.309

Sequence | PBM E-score
AATATGCC | 0.0584
CTTGGTAC | 0.0907
CTTTTCAC | 0.11
CTGATTAA | 0.161
AGAGGCTC | -0.28
CATTAATG | 0.122
CCACAGTA | 0.122
ACGGGCAG | -0.0649
ATTTGTTA | 0.22
GAGATTAA | 0.0823
ACCCACAC | 0.0699
GGGCGCTA | 0.0186
ATCCCAAG | -0.137
CGTCCAAG | -0.249
ATCTTATC | 0.156
TGTCTAAA | 0.234
CCTGGGTC | -0.261
AGTTGATG | 0.127
AAGTACAG | -0.124
ATCTGAAG | -0.147
AATCGTTC | 0.0185
AAATTGCT | 0.00285
CGCAGCAA | -0.0572
GACGCAGA | 0.14
GAGTTAAA | 0.129

Sequence | PBM E-score
GGAAGGAC | -0.177
CATAGATG | -0.156
GGAGAGCA | -0.196
GAGGGCGC | -0.0984
CTCAATAA | 0.00148
AGTCCAAT | -0.0617
TCAACACA | 0.288
GCGCGGCA | 0.264
TACCGTAA | 0.222
GCTATCGA | -0.0782
AAAGGGTC | -0.129
AGGGCACG | -0.183
GTAGTCCA | -0.0929
CTCCTCAC | -0.25
GATGAACA | 0.0215
CTTGTTTC | 0.125
ATCTTCAT | 0.0326
ACCCTCTA | -0.257
ACATGGAT | 0.163
AACTGCGT | 0.0317
CATCTTTA | 0.1
AAAATTAT | 0.378
ATAGTCCC | -0.242
AACGACAC | -0.0292
ATCCGGAA | -0.0217

Sequence | PBM E-score
ATACGTTA | 0.265
AACGATAG | 0.0747
CTAGCCCC | -0.171
ATCAGAGC | 0.0745
GCACTAGA | -0.197
CCTCGTGC | -0.118
CCTCGGAA | -0.105
CAAGCGAC | -0.0775
GCTTAGCA | -0.207
ACTCATAG | 0.152
ACCTTGGC | -0.281
CAAACATG | 0.0448
CTTGGTTC | 0.0801
ACGTCGTC | 0.199
CACAATAC | -0.0167
AGCCAAAA | 0.0307
AGTTCGTA | 0.0158
TGCGTCCA | -0.0683
CTTCCGCA | -0.209
ACATATCA | 0.249
CTGGAAAG | -0.0799
CGAGTGGC | -0.0795
CTATGGAA | -0.0199
GTAGGAAC | -0.0341
GAATACCA | 0.00536

Sequence | PBM E-score
AAAGGGGC | -0.196
AAGCCGGG | -0.136
TCCCTACA | -0.064
CGTTGTGA | 0.0602
CCTCTCAC | -0.15
CCCAAGTC | -0.314
CACAGAAA | 0.116
GACTATGA | 0.0652
CGGCATAA | 0.135
CTCAGGGC | -0.195
CTGCCTCC | -0.327
TTAACCAA | 0.114
GAAACGCA | 0.172
CATTCATA | 0.181
ACCCTAAG | -0.176
AAAGCCTA | 0.0532
TCTCTTCA | -0.11
ATGTGTTA | 0.167
CTCCCCAG | -0.386
TAGGTGAA | 0.0649
CTAGGGCA | -0.332
AGTCTCGC | -0.0217
AACGGCAA | 0.251
GCGACCAA | 0.0136
CGCGTAAA | 0.187

Sequence | PBM E-score
ATGCATCC | -0.233
GAATCCTA | 0.0178
CCTGCACA | -0.179
ATGCATAA | 0.117
CCCGGTAC | -0.279
CTTGGTGC | -0.106
CTGTGCAA | -0.00223
CCGTGACC | -0.145
AACGGTGT | -0.15
GCAGTGAA | 0.17
CAGTACTC | -0.183
CACACATA | 0.0581
CCTGAGCG | -0.119
TACGTCAA | 0.484
ATTCCTTA | -0.0647
ACCATTAA | 0.253
AACCCAGA | -0.145
AACTAATG | 0.158
GATTAGCC | -0.00016
CAATGCCG | 0.105
TATTCTCA | 0.122
AAATACGG | 0.167
AATTTGCC | -0.0123
CTTCGACC | -0.123
ATACCAAT | -0.0495

Sequence | PBM E-score
CACATGAA | 0.158
ATAAGAAC | 0.248
TCTTCGAA | -0.0645
CTAAGAAC | 0.029
AACTTATA | 0.208
ATCAGCGG | -0.0295
CAGCACGG | 0.0243
ACGAGTAG | 0.0301
AGGCTCTC | -0.202
CCCTAGTC | -0.362
CCACCGTA | -0.0247
GAAGGCTC | -0.242
CTGACGCA | 0.332
AGGCGCAA | 0.0848
TTCCGCAA | -0.0874
ATCCGAAG | -0.0956
ATATCCCG | 0.039
CCCGGACG | -0.0829
ATCACCAA | 0.223
AGACCGCC | -0.199
CGCATTTA | 0.179
CCCAGAGG | -0.294
ATCCCACC | 0.0287
AGCAGTGC | -0.198
TTGCGCAA | 0.0229

Sequence | PBM E-score
TAGGCGGA | -0.17
CGGTGGGC | -0.214
CAACCTTG | -0.004
AATTTACT | 0.203
TAGGGTCA | -0.0703
ACATCGAC | 0.0739
AACTTCGA | 0.158
CTCAGATA | 0.182
AGAACGTG | 0.0642
AATAACAT | 0.245
CTTATTGC | -0.0874
AAGTATGT | 0.0609
CAGGCGCA | 0.017
CTTCCGCC | -0.161
ATCATTGA | 0.306
GTATGACA | 0.323
ATGAGAGC | -0.0445
GAACTTAA | 0.0707
TTAACGAA | 0.224
AGGCACGC | 0.0415
GTTTGCTA | 0.0709
CCACTATC | -0.152
GTAACATA | 0.0905
CTTGTAGA | -0.214
CGAACTAG | 0.0382

Sequence | PBM E-score
CAGTTTCA | -0.0148
CGTCTATC | -0.0432
GTACCCAC | -0.165
CATAGTAC | 0.0124
GAACCCTC | -0.366
GGTTCCGA | -0.119
AGCATTGC | -0.0787
GGGTACAA | -0.055
CGGCAAAG | -0.00661
ACGTTTCA | 0.141
CGACCGGC | -0.127
ACCATCAC | 0.143
GCGAACTA | 0.0819
AAAATCCA | 0.185
GACTACCC | -0.329
AATAGGCG | 0.0415
AACTCTGT | 0.0458
CGCCTACC | -0.109
AGACGTGC | 0.013
